One molecule from ChEMBL document CHEMBL1201862, “PubChem BioAssay data set” (2004) can be followed below.

Among the test systems are NCI-H460; LOX IMVI; SK-MEL-5; MDA-MB-435; CAKI-1; CCRF-CEM; EKVX; OVCAR-4; Hs-578T; K562; MOLT-4; MCF7; UO-31; NCI-H522; TK-10; T47D; RPMI-8226; HCT-116; OVCAR-5; HL-60.
What all share (test): NCI-60 cell line screen, 48 h

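Five concentrations, 48 hours, 96-well plates. At the GI50, growth is halved.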 The source made the active and inactive calls. Rule as the data show it: active = GI50 up to about 1.1 µM and inactive = higher. Bounds are passed on as bounds.

Consider `CCOC(=O)Oc1cc2c(c(OC)c1OC)-c1ccc(SC)c(=O)cc1[C@@H](NC(C)=O)CC2`, for which the GI50 in the experiment with NCI-H460 is active: 17.5 nM; in the experiment with LOX IMVI, active: 7.33 nM; in the experiment with SK-MEL-5 it was active: 4.51 nM; with MDA-MB-435 it was active: 1.95 nM; in the experiment with CAKI-1, active: 927 nM; with CCRF-CEM, active: 6.52 nM. Moreover, the GI50 was inactive: 1640 nM in the experiment on EKVX; inactive: 2780 nM in the experiment with OVCAR-4; active: 2.1 nM in the experiment on Hs-578T; active: 5.56 nM with K562; active: 11.4 nM in the experiment with MOLT-4; active: 5.93 nM in the experiment on MCF7. The GI50 with UO-31 is inactive: 4690 nM; with NCI-H522, active: 21.1 nM; with TK-10, inactive: > 10000 nM; in the experiment with T47D, inactive: 10000 nM; in the experiment with RPMI-8226, active: 3.69 nM; in the experiment on HCT-116 it was active: 6.03 nM. Moreover, the GI50 was active: 479 nM in the experiment on OVCAR-5 and active: 7.11 nM in the experiment with HL-60.
